± gives the standard deviation of the averaged measurements. Single values are uncertain, as repeats are few or missing.
What was measured:
CHO-K1 [1] = assay: hypodiploid nuclei frequency (% of nucleated events); higher = more hypodiploid events (aneugenic)
CHO-K1 [2] = assay: relative survival (nuclei to bead ratio vs DMSO control) (% of vehicle control); higher = more surviving cells
CHO-K1 [3] = assay: micronucleus frequency (% of nucleated events); higher = more micronuclei (genotoxic)
[4] = concentration: 4.5 (µM), S9 metabolic activation: with S9, exposure time: 3-4 hours
[5] = concentration: 4.5 (µM), S9 metabolic activation: without S9, exposure time: 24 hours
[6] = concentration: 5.63 (µM), S9 metabolic activation: with S9, exposure time: 3-4 hours
[7] = concentration: 5.63 (µM), S9 metabolic activation: without S9, exposure time: 24 hours
[8] = concentration: 7.04 (µM), S9 metabolic activation: with S9, exposure time: 3-4 hours
[9] = concentration: 7.04 (µM), S9 metabolic activation: without S9, exposure time: 24 hours
[10] = concentration: 8.8 (µM), S9 metabolic activation: with S9, exposure time: 3-4 hours
[11] = concentration: 8.8 (µM), S9 metabolic activation: without S9, exposure time: 24 hours
[12] = concentration: 11 (µM), S9 metabolic activation: with S9, exposure time: 3-4 hours
[13] = concentration: 11 (µM), S9 metabolic activation: without S9, exposure time: 24 hours
[14] = concentration: 13.7 (µM), S9 metabolic activation: with S9, exposure time: 3-4 hours
[15] = concentration: 13.7 (µM), S9 metabolic activation: without S9, exposure time: 24 hours
[16] = concentration: 17.2 (µM), S9 metabolic activation: with S9, exposure time: 3-4 hours
[17] = concentration: 17.2 (µM), S9 metabolic activation: without S9, exposure time: 24 hours
[18] = concentration: 21.5 (µM), S9 metabolic activation: with S9, exposure time: 3-4 hours
[19] = concentration: 21.5 (µM), S9 metabolic activation: without S9, exposure time: 24 hours
[20] = concentration: 26.8 (µM), S9 metabolic activation: with S9, exposure time: 3-4 hours
[21] = concentration: 26.8 (µM), S9 metabolic activation: without S9, exposure time: 24 hours
[22] = concentration: 33.6 (µM), S9 metabolic activation: with S9, exposure time: 3-4 hours
[23] = concentration: 33.6 (µM), S9 metabolic activation: without S9, exposure time: 24 hours
[24] = concentration: 41.9 (µM), S9 metabolic activation: with S9, exposure time: 3-4 hours
[25] = concentration: 41.9 (µM), S9 metabolic activation: without S9, exposure time: 24 hours
[26] = concentration: 52.4 (µM), S9 metabolic activation: with S9, exposure time: 3-4 hours
[27] = concentration: 52.4 (µM), S9 metabolic activation: without S9, exposure time: 24 hours
[28] = concentration: 65.5 (µM), S9 metabolic activation: with S9, exposure time: 3-4 hours
[29] = concentration: 65.5 (µM), S9 metabolic activation: without S9, exposure time: 24 hours
[30] = concentration: 81.9 (µM), S9 metabolic activation: with S9, exposure time: 3-4 hours
[31] = concentration: 81.9 (µM), S9 metabolic activation: without S9, exposure time: 24 hours
[32] = concentration: 102 (µM), S9 metabolic activation: with S9, exposure time: 3-4 hours
[33] = concentration: 102 (µM), S9 metabolic activation: without S9, exposure time: 24 hours
[34] = concentration: 128 (µM), S9 metabolic activation: with S9, exposure time: 3-4 hours
[35] = concentration: 128 (µM), S9 metabolic activation: without S9, exposure time: 24 hours
[36] = concentration: 160 (µM), S9 metabolic activation: with S9, exposure time: 3-4 hours
[37] = concentration: 200 (µM), S9 metabolic activation: with S9, exposure time: 3-4 hours
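Wherever hypodiploid nuclei frequency (% of nucleated events) is given: hypodiploid nuclei gated on a flow cytometer with 488 nm excitation after SYTOX Green staining, cultures at 37 °C, positive controls vinblastine without S9 and cyclophosphamide with S9.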
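Wherever micronucleus frequency (% of nucleated events) is given: cells lysed with nuclei stained by SYTOX Green, then micronucleus-gated events counted against nucleated events by flow cytometry with 488 nm excitation.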
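Wherever relative survival (nuclei to bead ratio vs DMSO control) is given: Lysed-cell nuclei stained with SYTOX Green and counted against counting beads by flow cytometry at 488 nm excitation, with vinblastine (no S9) and cyclophosphamide (plus S9) as positive controls.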

Nc1ccc2ccccc2c1 [2-Naphthylamine]
hypodiploid nuclei frequency (CHO-K1 [1]; [4]): 0.16%
hypodiploid nuclei frequency (CHO-K1 [1]; [5]): 0.81 ± 0.13%
hypodiploid nuclei frequency (CHO-K1 [1]; [6]): 0.16%
hypodiploid nuclei frequency (CHO-K1 [1]; [7]): 0.46 ± 0.14%
hypodiploid nuclei frequency (CHO-K1 [1]; [8]): 0.26%
hypodiploid nuclei frequency (CHO-K1 [1]; [9]): 0.72 ± 0.11%
hypodiploid nuclei frequency (CHO-K1 [1]; [10]): 0.14%
hypodiploid nuclei frequency (CHO-K1 [1]; [11]): 0.57 ± 0.18%
hypodiploid nuclei frequency (CHO-K1 [1]; [12]): 0.16%
hypodiploid nuclei frequency (CHO-K1 [1]; [13]): 0.46 ± 0.085%
hypodiploid nuclei frequency (CHO-K1 [1]; [14]): 0.24%
hypodiploid nuclei frequency (CHO-K1 [1]; [15]): 0.59 ± 0.13%
hypodiploid nuclei frequency (CHO-K1 [1]; [16]): 0.2%
hypodiploid nuclei frequency (CHO-K1 [1]; [17]): 0.64 ± 0.2%
hypodiploid nuclei frequency (CHO-K1 [1]; [18]): 0.28%
hypodiploid nuclei frequency (CHO-K1 [1]; [19]): 0.53 ± 0.13%
hypodiploid nuclei frequency (CHO-K1 [1]; [20]): 0.28%
hypodiploid nuclei frequency (CHO-K1 [1]; [21]): 0.64%
hypodiploid nuclei frequency (CHO-K1 [1]; [22]): 0.26%
hypodiploid nuclei frequency (CHO-K1 [1]; [23]): 0.76%
hypodiploid nuclei frequency (CHO-K1 [1]; [24]): 0.36%
hypodiploid nuclei frequency (CHO-K1 [1]; [25]): 0.86%
hypodiploid nuclei frequency (CHO-K1 [1]; [26]): 0.38%
hypodiploid nuclei frequency (CHO-K1 [1]; [27]): 1.06%
hypodiploid nuclei frequency (CHO-K1 [1]; [28]): 0.38%
hypodiploid nuclei frequency (CHO-K1 [1]; [29]): 1.6%
hypodiploid nuclei frequency (CHO-K1 [1]; [30]): 0.2%
hypodiploid nuclei frequency (CHO-K1 [1]; [31]): 1.58%
hypodiploid nuclei frequency (CHO-K1 [1]; [32]): 0.22%
hypodiploid nuclei frequency (CHO-K1 [1]; [33]): 1.36%
hypodiploid nuclei frequency (CHO-K1 [1]; [34]): 0.2%
hypodiploid nuclei frequency (CHO-K1 [1]; [35]): 1.86%
hypodiploid nuclei frequency (CHO-K1 [1]; [36]): 0.42%
hypodiploid nuclei frequency (CHO-K1 [1]; [37]): 0.34%
relative survival (CHO-K1 [2]; [4]): 95.2
relative survival (CHO-K1 [2]; [5]): 100 ± 22
relative survival (CHO-K1 [2]; [6]): 105
relative survival (CHO-K1 [2]; [7]): 115 ± 5
relative survival (CHO-K1 [2]; [8]): 105
relative survival (CHO-K1 [2]; [9]): 125 ± 3.4
relative survival (CHO-K1 [2]; [10]): 91.4
relative survival (CHO-K1 [2]; [11]): 132 ± 12
relative survival (CHO-K1 [2]; [12]): 98.4
relative survival (CHO-K1 [2]; [13]): 116 ± 20
relative survival (CHO-K1 [2]; [14]): 99.7
relative survival (CHO-K1 [2]; [15]): 126 ± 2.5
relative survival (CHO-K1 [2]; [16]): 97.1
relative survival (CHO-K1 [2]; [17]): 105 ± 22
relative survival (CHO-K1 [2]; [18]): 95.8
relative survival (CHO-K1 [2]; [19]): 89.6 ± 32
relative survival (CHO-K1 [2]; [20]): 74.8
relative survival (CHO-K1 [2]; [21]): 114
relative survival (CHO-K1 [2]; [22]): 73.7
relative survival (CHO-K1 [2]; [23]): 118
relative survival (CHO-K1 [2]; [24]): 63.8
relative survival (CHO-K1 [2]; [25]): 122
relative survival (CHO-K1 [2]; [26]): 67.3
relative survival (CHO-K1 [2]; [27]): 110
relative survival (CHO-K1 [2]; [28]): 77.7
relative survival (CHO-K1 [2]; [29]): 43.8
relative survival (CHO-K1 [2]; [30]): 73.8
relative survival (CHO-K1 [2]; [31]): 56
relative survival (CHO-K1 [2]; [32]): 77.1
relative survival (CHO-K1 [2]; [33]): 70.6
relative survival (CHO-K1 [2]; [34]): 83.7
relative survival (CHO-K1 [2]; [35]): 82.4
relative survival (CHO-K1 [2]; [36]): 80.3
relative survival (CHO-K1 [2]; concentration: 160 (µM), S9 metabolic activation: without S9, exposure time: 24 hours): 28.7
relative survival (CHO-K1 [2]; [37]): 77.5
relative survival (CHO-K1 [2]; concentration: 200 (µM), S9 metabolic activation: without S9, exposure time: 24 hours): 37.5
micronucleus frequency (CHO-K1 [3]; [4]): 1.22%
micronucleus frequency (CHO-K1 [3]; [5]): 1.77 ± 0.13%
micronucleus frequency (CHO-K1 [3]; [6]): 1.98%
micronucleus frequency (CHO-K1 [3]; [7]): 1.04 ± 0.23%
micronucleus frequency (CHO-K1 [3]; [8]): 1.06%
micronucleus frequency (CHO-K1 [3]; [9]): 1.28 ± 0.4%
micronucleus frequency (CHO-K1 [3]; [10]): 1.06%
micronucleus frequency (CHO-K1 [3]; [11]): 1.27 ± 0.67%
micronucleus frequency (CHO-K1 [3]; [12]): 1.66%
micronucleus frequency (CHO-K1 [3]; [13]): 1.56 ± 0.085%
micronucleus frequency (CHO-K1 [3]; [14]): 1.36%
micronucleus frequency (CHO-K1 [3]; [15]): 1.35 ± 0.35%
micronucleus frequency (CHO-K1 [3]; [16]): 1.26%
micronucleus frequency (CHO-K1 [3]; [17]): 1.32 ± 0.028%
micronucleus frequency (CHO-K1 [3]; [18]): 1.5%
micronucleus frequency (CHO-K1 [3]; [19]): 1.11 ± 0.099%
micronucleus frequency (CHO-K1 [3]; [20]): 1.68%
micronucleus frequency (CHO-K1 [3]; [21]): 1.3%
micronucleus frequency (CHO-K1 [3]; [22]): 2.3%
micronucleus frequency (CHO-K1 [3]; [23]): 1.56%
micronucleus frequency (CHO-K1 [3]; [24]): 1.94%
micronucleus frequency (CHO-K1 [3]; [25]): 1.58%
micronucleus frequency (CHO-K1 [3]; [26]): 2.52%
micronucleus frequency (CHO-K1 [3]; [27]): 1.52%
micronucleus frequency (CHO-K1 [3]; [28]): 1.46%
micronucleus frequency (CHO-K1 [3]; [29]): 3.38%
micronucleus frequency (CHO-K1 [3]; [30]): 1.66%
micronucleus frequency (CHO-K1 [3]; [31]): 2.54%
micronucleus frequency (CHO-K1 [3]; [32]): 1.62%
micronucleus frequency (CHO-K1 [3]; [33]): 2.26%
micronucleus frequency (CHO-K1 [3]; [34]): 1.38%
micronucleus frequency (CHO-K1 [3]; [35]): 2.58%
micronucleus frequency (CHO-K1 [3]; [36]): 1.94%
micronucleus frequency (CHO-K1 [3]; [37]): 1.18%
